Test results from the antibiotic and cytotoxicity screens of Wong et al. (2023).
The list shows a part of the results.

Experiments:
HSkMC = human skeletal muscle cells; assay: cytotoxicity call (relative viability < 0.9); settings: 10 µM
HepG2 = assay: cytotoxicity call (relative viability < 0.9); settings: 10 µM
S. aureus RN4220 = assay: growth inhibition call (relative growth <= 0.2); settings: 50 µM

| SMILES | cytotoxicity call (HSkMC) | cytotoxicity call (HepG2) | growth inhibition call (S. aureus RN4220) |
| --- | --- | --- | --- |
| C[C@@H]1CN([C@H](C)CO)C(=O)c2cc(NC(=O)Nc3ccc4c(c3)OCO4)ccc2O[C@@H](C)CCCCO[C@H]1CN(C)C(=O)Cc1ccccc1 | inactive | inactive | inactive |
| C[C@H](CO)N1C[C@H](C)[C@H](CN(C)S(=O)(=O)c2ccc(Cl)cc2)Oc2ccc(NC(=O)c3ccncc3)cc2CC1=O | inactive | inactive | inactive |
| C[C@@H]1CN([C@@H](C)CO)C(=O)c2cccc(NS(C)(=O)=O)c2O[C@H]1CN(C)Cc1ccc(C(=O)O)cc1 | inactive | inactive | inactive |
| COc1ccc(S(=O)(=O)N(C)C[C@@H]2Oc3ccc(NS(=O)(=O)c4ccccc4)cc3CC(=O)N([C@@H](C)CO)C[C@H]2C)cc1 | inactive | active | inactive |
| C[C@H](CO)N1C[C@H](C)[C@H](CN(C)C(=O)Nc2ccc3c(c2)OCO3)Oc2ccc(NS(C)(=O)=O)cc2CC1=O | inactive | inactive | inactive |
| NC(=O)c1cc[n+](CC2=C(C(=O)O)N3C(=O)[C@@H](NC(=O)Cc4cccs4)[C@H]3SC2)cc1 | inactive | inactive | active |
| C[C@@H]1CN([C@H](C)CO)C(=O)c2cc(NC(=O)c3ccncc3)ccc2O[C@@H](C)CCCCO[C@H]1CN(C)Cc1ccc(Cl)c(Cl)c1 | inactive | inactive | inactive |
| CN1CCN(C(=O)C[C@H]2CC[C@@H]3[C@H](COC[C@@H](O)CN3C(=O)C3CCCC3)O2)CC1 | inactive | inactive | inactive |
| C[C@@H]1CN([C@@H](C)CO)C(=O)Cc2cc(NC(=O)CCC(F)(F)F)ccc2O[C@@H]1CN(C)Cc1ccc(-c2ccccc2)cc1 | inactive | inactive | inactive |
| C[C@@H]1CN([C@@H](C)CO)C(=O)c2cc(NC(=O)CCCCCC(=O)Nc3ccccc3N)ccc2O[C@H]1CN(C)C(=O)Nc1ccccc1 | inactive | inactive | inactive |
| COc1ccccc1CNC(=O)C[C@H]1CC[C@@H]2[C@H](COC[C@@H](O)CN2C(=O)Nc2ccc(Cl)cc2)O1 | inactive | inactive | active |
| CC1(C)CC(=O)c2c(C(F)(F)F)nn(-c3ccc(C(N)=O)c(O[C@H]4CC[C@H](N)CC4)c3)c2C1 | inactive | inactive | inactive |
| CN(C)/N=N/c1nc[nH]c1C(N)=O | inactive | inactive | inactive |
| Nc1nnc(SCC(=O)NC[C@H]2CCCO2)[nH]1 | inactive | inactive | inactive |
| CO[C@@H]1CN(C)C(=O)c2ccc(NC(=O)Nc3ccccc3)cc2OC[C@H](C)N(C(=O)CN(C)C)C[C@@H]1C | inactive | inactive | inactive |
| C[C@@H]1CN([C@H](C)CO)C(=O)c2cccc(NS(=O)(=O)c3cn(C)cn3)c2O[C@H]1CN(C)C(=O)NC1CCCCC1 | inactive | inactive | inactive |
| O=C(NCCN1CCN(c2ccccc2F)CC1)[C@H]1CCCN(S(=O)(=O)c2c[nH]cn2)C1 | inactive | inactive | inactive |
| CCNC(=S)N1CCC[C@H](C(N)=O)C1 | inactive | inactive | inactive |
| C[C@H]1CN([C@@H](C)CO)C(=O)Cc2cc(NS(=O)(=O)c3cn(C)cn3)ccc2O[C@@H]1CN(C)C(=O)Nc1ccc2c(c1)OCO2 | inactive | inactive | inactive |
| CCOCC(=O)NS(=O)(=O)c1ccccc1 | inactive | inactive | inactive |
| C[C@@H]1CCCCO[C@H](CN(C)S(C)(=O)=O)[C@@H](C)CN([C@H](C)CO)C(=O)c2cc(NS(C)(=O)=O)ccc2O1 | inactive | inactive | inactive |
| Cc1ccc(S(=O)(=O)N(C)C[C@@H]2OCCCC[C@H](C)Oc3ccc(NS(=O)(=O)c4ccc(F)cc4)cc3C(=O)N([C@@H](C)CO)C[C@H]2C)cc1 | inactive | active | inactive |
| CCS(=O)(=O)Nc1ccc2c(c1)C(=O)N(C)C[C@@H](OC)[C@@H](C)CN(Cc1nccs1)[C@@H](C)CO2 | inactive | inactive | inactive |
| Cc1noc(C)c1S(=O)(=O)Nc1ccc2c(c1)CC(=O)N([C@@H](C)CO)C[C@@H](C)[C@@H](CN(C)Cc1ccc(Oc3ccccc3)cc1)O2 | inactive | active | inactive |
| O=C1CN(S(=O)(=O)Cc2ccccc2)C[C@@H]2[C@H](c3ccc(C#Cc4ccc(F)cc4)cc3)[C@H](CO)N12 | active | inactive | inactive |
| C[C@H]1CCCN(C(=O)CCNS(=O)(=O)c2ccc3c(c2)c(=O)n(C)c(=O)n3C)C1 | inactive | active | inactive |
